Measured values published in PubChem BioAssay (NCATS).
Some of the results follow. Further columns of the screen follow, without active or inactive calls. Most of these compounds were active or inconclusive in the main read-out, so they are no random draw.

assay: qHTS Assay for Lipid Storage Modulators (AID 1519); settings: Drosophila S3 cells, BODIPY lipid droplet/cell ratio, laser cytometry; measured here: cell count channel max response; cells loaded with oleic acid
In short: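 Cells seeded at 5,000 per well were treated with compounds over a concentration series and loaded with oleic acid (400 uM, as added). Lipid droplet fluorescence (488 nm excitation, 500-530 nm channel) was read by laser-scanning cytometry and normalized to 20 uM Triacsin C.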

Compound | max response [%]
Cn1cc(-c2nc3cnc(N4CCNCC4)nc3n(CCc3ccccc3)c2=O)c2ccccc21 | -55.7
N#Cc1ccc(CN2CC[C@@]3(CCCN(C(=O)c4ccco4)C3)C2)cc1 | 21
CN(C)c1ncnc2ccc(-c3ccc4c(c3)OCO4)cc12 | 23.1
Cc1c(CC(C)(C)C(=O)O)n(Cc2ccc(Cl)cc2)c2ccc(F)cc12 | 62.5
COCCn1c(=O)c(-c2ccc(Cl)cc2)nc2cnc(Oc3ccccc3)nc21 | 20.4
Cc1nc2cnc(N3CCN(C)CC3)nc2n(CCc2ccccc2)c1=O | 23.6
COc1cccc(Cn2c(=O)c(-c3cc(F)cc(F)c3)nc3cncnc32)c1 | 5.89
COc1cccc(Cn2c(=O)c(-c3cccs3)nc3cncnc32)c1 | 36.3
COc1ccc(Oc2ncc3nc(-c4cccc(C#N)c4)c(=O)n(CCC#N)c3n2)cc1 | -0.505
FC(F)(F)c1ccccc1-c1nccc(NCCN2CCOCC2)n1 | 29.8
CCNc1ncc2nc(C)c(=O)n(CCOC)c2n1 | 19.8
C[N+](C)(C)CCCCCNCC12CC3CC(CC(C3)C1)C2 | 24.5
CNC1C(O)C2OC3OC(C)CC(=O)[C@@]3(O)O[C@H]2[C@H](NC)C1O (stereo partly drawn) | 26.5
Cc1ccccc1-c1nccc(-n2ccnc2)n1 | 8.29
COc1ccc(-c2nc3cnc(OC)nc3n(CCC#N)c2=O)cc1 | 26.8
COCCn1c(=O)c(-c2ccc(OC)cc2)nc2cnc(N3CCOCC3)nc21 | 9.13
CN(C)C(=O)c1ccc(-c2nc(N(C)Cc3ccco3)c3ccccc3n2)cc1 | 14.1
COCCn1c(=O)c(-c2cccc(C#N)c2)nc2cnc(Oc3ccc(OC)cc3)nc21 | -24.9
